Data reported in the supplement of paper PMC4967469.
A lower IC50 marks a more sensitive line; a fit beyond the top or the lowest dose is shown as a bound at that dose. The AUC spans the tested range (256-fold, ending at the top dose) of the same fit; the more sensitive the line, the further below 1. The top dose, if marked as inferred, comes from the curve model; the source does not state it. For some of these results: Drugs with an entry number were screened twice under separate entries, and the two screens often disagree.

Tests used:
Experiment in all cases: Viability of human cancer cell lines after 72 h of drug (GDSC screen)
[1] = compound: O=C1NC(=O)c2c1c(-c1ccccc1Cl)cc1[nH]c3ccc(O)cc3c21 [Wee1 inhibitor 681640]; settings: top dose 2 µM; top dose inferred
Protocol: (§1)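 Human cancer cell lines in 384-well plates, medium with 10% serum, drug for 72 h over a 256-fold dose range (nine 2-fold or five 4-fold steps up to the top dose). Adherent lines were fixed and stained with the nucleic acid dye Syto60, suspension lines read with resazurin; signal relative to control wells, capped at 0 and 100%. One two-parameter sigmoid per drug and line, fitted in a mixed model over all curves with the slope shared within a line.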

[2] = compound: Cc1ccc(-n2nc(C(C)(C)C)cc2NC(=O)Nc2ccc(OCCN3CCOCC3)c3ccccc23)cc1 [BIRB 0796]; settings: top dose 10 µM; top dose inferred
Protocol: as §1

[3] = compound: Cc1cc(N2CCOCC2)cc2[nH]c(-c3c(NC[C@@H](O)c4cccc(Cl)c4)cc[nH]c3=O)nc12 [BMS-536924]
Protocol: as §1

[4] = compound: Cc1cccc(-c2[nH]c(C(C)(C)C)nc2-c2ccc3nccnc3c2)n1 [SB-525334]; settings: top dose 20 µM; top dose inferred
Protocol: as §1

[5] = compound: CNC(=O)c1ccc(Nc2cc(Nc3ccccc3S(=O)(=O)C(C)C)c3cc[nH]c3n2)nc1 [HG-5-113-01]; settings: top dose 10 µM; top dose inferred
Protocol: as §1

[6] = compound: COc1cc(N2CCN(C)CC2)ccc1Nc1ncc2c(n1)N(C)c1ccccc1C(=O)N2C [XMD8-85]; settings: top dose 8 µM; top dose inferred
Protocol: as §1

[7] = compound: O=C(c1cc(Cc2n[nH]c(=O)c3ccccc23)ccc1F)N1CCN(C(=O)C2CC2)CC1 [Olaparib]
Protocol: as §1

[8] = compound: NC(=O)c1ccc(N(C(N)=O)c2c(F)cccc2F)nc1-c1ccc(F)cc1F [VX-702]; settings: top dose 2 µM; top dose inferred
Protocol: as §1

[9] = compound: CCNc1cc(NC2CCC(O)CC2)nc(Nc2ccc3c(ccn3Cc3ccccc3)c2)n1 [CGP-082996 (CINK4)]; settings: top dose 5.12 µM; top dose inferred
Protocol: as §1

[10] = compound: CC(C)=CC[C@@H](O)C1=CC(=O)c2c(O)ccc(O)c2C1=O [Shikonin]; settings: top dose 16 µM; top dose inferred
Protocol: as §1

[11] = compound: COc1cc(-c2nn([C@H]3CC[C@H](N4CCN(C(C)=O)CC4)CC3)c3ncnc(N)c23)ccc1NC(=O)c1cc2ccccc2n1C [A-770041]; settings: top dose 5.12 µM; top dose inferred
Protocol: as §1

[12] = top dose 4 µM, screen: GDSC drug entry 1091, top dose inferred
[13] = top dose 5.12 µM, screen: GDSC drug entry 62
[14] = top dose 5 µM, screen: GDSC drug entry 1017, top dose inferred
[15] = top dose 10 µM, screen: GDSC drug entry 1495

Cell Line | AUC [1] | IC50 [1] [µM] | AUC [2] | IC50 [2] [µM] | AUC [3, 12] | IC50 [3, 12] [µM] | AUC [3, 13] | IC50 [3, 13] [µM] | AUC [4] | IC50 [4] [µM] | AUC [5] | IC50 [5] [µM] | AUC [6] | IC50 [6] [µM] | AUC [7, 14] | IC50 [7, 14] [µM] | AUC [7, 15] | IC50 [7, 15] [µM] | AUC [8] | IC50 [8] [µM] | AUC [9] | IC50 [9] [µM] | AUC [10] | IC50 [10] [µM] | AUC [11] | IC50 [11] [µM]
EW-1 (Ewing sarcoma, semi-adherent) | 0.901 | > 2 | 0.982 | > 10 | 0.914 | > 4 | 0.423 | 0.2 | 0.857 | 14.3 | 0.753 | 3.11 | 0.752 | 2.46 | 0.921 | > 5 | 0.79 | 4.05 | 0.989 | > 2 | 0.911 | > 5.12 | 0.508 | 1.05 | 0.983 | > 5.12
EW-11 (Ewing sarcoma, adherent) | 0.952 | > 2 | 0.958 | > 10 | 0.592 | 0.482 | 0.967 | > 5.12 | 0.743 | 7.78 | 0.624 | 1.52 | 0.828 | 7.04 | 0.846 | > 5 | 0.876 | > 10 | 0.935 | > 2 | 0.956 | > 5.12 | 0.426 | 0.592 | 0.967 | > 5.12
EW-16 (Ewing sarcoma, adherent) | 0.876 | > 2 | 0.931 | > 10 | 0.767 | 1.56 | 0.419 | 0.19 | 0.59 | 2.23 | 0.67 | 1.9 | 0.882 | > 8 | 0.895 | > 5 | 0.804 | 5.28 | 0.921 | > 2 | 0.885 | > 5.12 | 0.314 | 0.294 | 0.799 | 2.58
EW-24 (Ewing sarcoma, semi-adherent) | 0.986 | > 2 | 0.989 | > 10 | 0.898 | 3.96 | 0.927 | > 5.12 | 0.993 | > 20 | 0.819 | 4.81 | 0.991 | > 8 | 0.982 | > 5 | 0.988 | > 10 | 0.99 | > 2 | 0.976 | > 5.12 | 0.797 | 6.5 | 0.97 | > 5.12
EoL-1-cell (haematopoietic neoplasm, suspension) | 0.961 | > 2 | 0.616 | 1.25 | 0.715 | 0.928 | 0.725 | 1.27 | 0.948 | > 20 | 0.49 | 0.59 | 0.906 | > 8 | 0.922 | > 5 | 0.956 | > 10 | 0.924 | > 2 | 0.887 | 4.56 | 0.315 | 0.325 | 0.841 | 2.98
Farage (B-cell lymphoma, suspension) | 0.977 | > 2 | 0.973 | > 10 | 0.992 | > 4 | 0.855 | 2.97 | 0.955 | > 20 | 0.992 | > 10 | 0.982 | > 8 | 0.988 | > 5 | 0.99 | > 10 | 0.949 | > 2 | 0.988 | > 5.12 | 0.187 | 0.148 | 0.419 | 0.2
GB-1 (glioma, adherent) | 0.864 | > 2 | 0.924 | > 10 | 0.882 | > 4 | 0.577 | 0.539 | 0.829 | 15.6 | 0.768 | 4.42 | 0.923 | > 8 | 0.902 | > 5 | 0.918 | > 10 | 0.98 | > 2 | 0.851 | 5.03 | 0.439 | 0.66 | 0.544 | 0.432
GI-1 (glioma, adherent) | 0.925 | > 2 | 0.969 | > 10 | 0.927 | > 4 | 0.677 | 0.974 | 0.885 | > 20 | 0.66 | 1.7 | 0.864 | 6.5 | 0.943 | > 5 | 0.875 | 9.14 | 0.964 | > 2 | 0.781 | 2.03 | 0.407 | 0.562 | 0.773 | 1.9
GI-ME-N (neuroblastoma, adherent) | 0.854 | > 2 | 0.966 | > 10 | 0.791 | 2.57 | 0.695 | 1.39 | 0.645 | 3.65 | 0.598 | 1.28 | 0.589 | 0.96 | 0.934 | > 5 | 0.747 | 4.23 | 0.977 | > 2 | 0.93 | > 5.12 | 0.42 | 0.557 | 0.626 | 0.808
GR-ST (lymphoblastic leukaemia, suspension) | 0.782 | 1.02 | 0.979 | > 10 | 0.8 | 2.43 | 0.778 | 2.54 | 0.927 | > 20 | 0.731 | 3.32 | 0.869 | > 8 | 0.936 | > 5 | 0.849 | > 10 | 0.97 | > 2 | 0.868 | > 5.12 | 0.273 | 0.195 | 0.969 | > 5.12
GRANTA-519 (B-cell lymphoma, suspension) | 0.968 | > 2 | 0.982 | > 10 | 0.99 | > 4 | 0.978 | > 5.12 | 0.984 | > 20 | 0.883 | 8.87 | 0.975 | > 8 | 0.991 | > 5 | 0.971 | > 10 | 0.991 | > 2 | 0.989 | > 5.12 | 0.423 | 0.632 | 0.973 | > 5.12
GT3TKB (stomach, adherent) | 0.944 | > 2 | 0.99 | > 10 | 0.939 | > 4 | 0.859 | 3.48 | 0.988 | > 20 | 0.751 | 2.95 | 0.946 | > 8 | 0.961 | > 5 | 0.777 | 3.54 | 0.985 | > 2 | 0.864 | 3.62 | 0.354 | 0.416 | 0.987 | > 5.12
H9 (lymphoid neoplasm, suspension) | 0.992 | > 2 | 0.991 | > 10 | 0.953 | > 4 | 0.824 | 2.36 | 0.991 | > 20 | 0.671 | 1.7 | 0.708 | 1.7 | 0.992 | > 5 | 0.988 | > 10 | 0.992 | > 2 | 0.953 | > 5.12 | 0.304 | 0.316 | 0.939 | > 5.12
HCC2157 (breast, suspension) | 0.987 | > 2 | 0.987 | > 10 | 0.931 | > 4 | 0.949 | > 5.12 | 0.987 | > 20 | 0.781 | 4.36 | 0.908 | > 8 | 0.983 | > 5 | 0.982 | > 10 | 0.978 | > 2 | 0.972 | > 5.12 | 0.348 | 0.37 | 0.986 | > 5.12
HCC2218 (breast, suspension) | 0.977 | > 2 | 0.982 | > 10 | 0.982 | > 4 | 0.967 | > 5.12 | 0.945 | > 20 | 0.828 | 8.42 | 0.976 | > 8 | 0.975 | > 5 | 0.978 | > 10 | 0.958 | > 2 | 0.943 | > 5.12 | 0.394 | 0.474 | 0.814 | 3.72
HSC-39 (stomach, suspension) | 0.886 | 1.67 | 0.985 | > 10 | 0.802 | 1.65 | 0.69 | 0.997 | 0.991 | > 20 | 0.617 | 1.25 | 0.966 | > 8 | 0.965 | > 5 | 0.988 | > 10 | 0.962 | > 2 | 0.975 | > 5.12 | 0.99 | > 16 | 0.983 | > 5.12
HUTU-80 (digestive system, adherent) | 0.991 | > 2 | 0.974 | > 10 | 0.912 | > 4 | 0.578 | 0.503 | 0.867 | 13.1 | 0.659 | 1.59 | 0.913 | > 8 | 0.93 | > 5 | 0.896 | 8.54 | 0.991 | > 2 | 0.851 | 2.93 | 0.369 | 0.467 | 0.73 | 1.26
IST-MEL1 (melanoma, adherent) | 0.876 | > 2 | 0.982 | > 10 | 0.964 | > 4 | 0.822 | 3.78 | 0.837 | 17.3 | 0.757 | 4.05 | 0.852 | > 8 | 0.961 | > 5 | 0.892 | > 10 | 0.974 | > 2 | 0.839 | 4.52 | 0.724 | 4.98 | 0.609 | 0.678
JJN-3 (haematopoietic neoplasm, suspension) | 0.992 | > 2 | 0.992 | > 10 | 0.965 | > 4 | 0.867 | 3.29 | 0.969 | > 20 | 0.776 | 3.27 | 0.915 | > 8 | 0.993 | > 5 | 0.992 | > 10 | 0.961 | > 2 | 0.963 | > 5.12 | 0.368 | 0.464 | 0.968 | > 5.12
K5 (thyroid, adherent) | 0.918 | > 2 | 0.981 | > 10 | 0.922 | > 4 | 0.749 | 1.6 | 0.978 | > 20 | 0.722 | 2.58 | 0.926 | > 8 | 0.956 | > 5 | 0.881 | 9.72 | 0.986 | > 2 | 0.976 | > 5.12 | 0.452 | 0.745 | 0.884 | > 5.12
